No constants are given. Whether binding was seen depends on the method and setting. In cells and extracts the contact can be indirect. Some results given as binding are weak or reduced against the parent protein; the word gives no strength. For part of these data: Where a sequence is shown, tags or fusion partners need not be part of it.
How the values were obtained:
TFCP2-Myc [1] = target: T1, TFCP2-Myc (UniProt Q12800); test: condition: only cells treated with erastin (5 μM, 4 h); co-IP; as a3, cells treated with erastin (5 μM, 4 h)
T1 sequence: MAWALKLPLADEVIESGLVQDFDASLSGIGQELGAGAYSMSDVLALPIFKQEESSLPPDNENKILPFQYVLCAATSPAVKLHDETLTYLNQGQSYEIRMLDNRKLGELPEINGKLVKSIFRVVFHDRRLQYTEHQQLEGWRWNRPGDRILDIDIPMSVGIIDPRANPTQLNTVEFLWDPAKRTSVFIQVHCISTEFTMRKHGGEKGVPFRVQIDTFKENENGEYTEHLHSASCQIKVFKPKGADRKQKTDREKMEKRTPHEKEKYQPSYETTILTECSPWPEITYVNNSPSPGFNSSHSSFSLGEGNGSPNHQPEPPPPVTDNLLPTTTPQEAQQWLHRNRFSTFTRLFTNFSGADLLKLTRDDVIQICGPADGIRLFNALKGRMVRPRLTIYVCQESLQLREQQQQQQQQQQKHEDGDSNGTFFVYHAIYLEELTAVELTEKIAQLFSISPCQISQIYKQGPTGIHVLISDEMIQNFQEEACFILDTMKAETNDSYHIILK

Protein sequences, listed by entry. Tags and fused reporters are not part of them.
UniProt P46937: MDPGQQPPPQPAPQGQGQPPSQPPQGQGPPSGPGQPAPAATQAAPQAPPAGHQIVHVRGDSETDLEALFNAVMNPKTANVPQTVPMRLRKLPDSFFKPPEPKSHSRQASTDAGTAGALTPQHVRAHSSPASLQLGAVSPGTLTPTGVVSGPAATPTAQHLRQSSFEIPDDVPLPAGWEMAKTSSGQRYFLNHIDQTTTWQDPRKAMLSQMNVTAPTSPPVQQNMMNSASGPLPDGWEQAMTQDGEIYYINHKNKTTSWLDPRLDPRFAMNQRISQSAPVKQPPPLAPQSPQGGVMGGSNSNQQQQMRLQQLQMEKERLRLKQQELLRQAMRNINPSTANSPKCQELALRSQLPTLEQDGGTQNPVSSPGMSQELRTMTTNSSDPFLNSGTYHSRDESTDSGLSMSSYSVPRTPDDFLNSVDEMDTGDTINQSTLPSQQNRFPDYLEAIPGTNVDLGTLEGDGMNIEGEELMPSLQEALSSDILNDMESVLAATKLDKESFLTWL
UniProt Q92993: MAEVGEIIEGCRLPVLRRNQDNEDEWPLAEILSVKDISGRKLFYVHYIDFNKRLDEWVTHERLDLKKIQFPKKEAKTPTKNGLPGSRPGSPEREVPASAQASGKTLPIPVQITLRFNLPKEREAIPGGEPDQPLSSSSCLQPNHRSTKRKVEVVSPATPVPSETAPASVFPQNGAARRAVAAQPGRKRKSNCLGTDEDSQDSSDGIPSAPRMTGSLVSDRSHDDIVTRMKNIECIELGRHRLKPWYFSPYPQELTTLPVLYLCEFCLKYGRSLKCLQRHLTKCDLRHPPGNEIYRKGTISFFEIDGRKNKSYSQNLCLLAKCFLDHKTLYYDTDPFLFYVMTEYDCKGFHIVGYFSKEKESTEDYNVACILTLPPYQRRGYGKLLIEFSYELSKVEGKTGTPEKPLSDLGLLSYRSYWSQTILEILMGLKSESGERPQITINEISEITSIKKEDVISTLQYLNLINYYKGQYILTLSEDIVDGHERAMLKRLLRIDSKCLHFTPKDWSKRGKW

TFCP2^Y269A-Myc [2] = target: T2, TFCP2^Y269A-Myc (UniProt Q12800); test: proximity ligation; Duolink in situ Red kit, anti-Myc and anti-HA antibodies, PC9 cells transfected with the indicated vectors
T2 sequence: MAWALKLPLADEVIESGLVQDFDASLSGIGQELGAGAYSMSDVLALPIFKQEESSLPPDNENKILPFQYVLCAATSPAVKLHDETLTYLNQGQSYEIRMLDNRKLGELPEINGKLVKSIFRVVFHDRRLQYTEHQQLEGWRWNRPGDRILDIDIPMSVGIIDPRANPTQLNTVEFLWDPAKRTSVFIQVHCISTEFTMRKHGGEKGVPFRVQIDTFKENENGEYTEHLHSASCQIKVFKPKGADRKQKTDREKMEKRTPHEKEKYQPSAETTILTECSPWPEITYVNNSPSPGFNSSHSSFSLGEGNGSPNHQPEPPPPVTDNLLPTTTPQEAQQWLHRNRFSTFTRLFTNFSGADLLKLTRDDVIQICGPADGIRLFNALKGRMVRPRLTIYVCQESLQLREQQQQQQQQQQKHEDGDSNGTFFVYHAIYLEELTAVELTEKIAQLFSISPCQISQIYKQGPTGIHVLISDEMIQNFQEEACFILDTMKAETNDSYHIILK

TFCP2-Myc [3] = target: T1, TFCP2-Myc; test: as above
TFCP2-Myc [4] = target: T1, TFCP2-Myc; test: condition: only cells treated with erastin (5 μM, 4 h); proximity ligation; as a5, cells treated with erastin (5 μM, 4 h)
TFCP2^Y269A-Myc [5] = target: T2, TFCP2^Y269A-Myc; test: co-IP; TFCP2-Myc and YAP-HA vectors transfected into PC9 or H1299 cells; anti-Myc (or anti-HA) antibodies, immunoblot; bait level adjusted to the same content
TFCP2-Myc [6] = target: T1, TFCP2-Myc; test: as above
[7] = target: Yes-associated protein (endogenous) (human (endogenous in PC9 and H1299)) (UniProt P46937); test: co-IP; endogenous proteins; anti-YAP antibodies, whole cell lysates of PC9 or H1299 cells, protein A/G magnetic beads, immunoblot; YAP level in each co-IP sample adjusted to the same content; also in PC9 cells with KAT5 overexpression or knockdown (Figure 6P)
[8] = target: lysine acetyltransferase 5 (endogenous) (human (endogenous in PC9)) (UniProt Q92993); test: co-IP; endogenous proteins; IgG, anti-KAT5 and anti-TFCP2 antibodies, PC9 cells, immunoblot
[9] = target: Yes-associated protein (endogenous) (human (endogenous in PC9 and H1299)) (UniProt P46937); test: condition: only cells treated with erastin (10 μM, 24 h); co-IP; as a1, cells treated with erastin (10 μM, 24 h) before lysis

## YAP-HA (from UniProt P46937 1-504)
TFCP2-Myc [1]
  binding: no binding
TFCP2^Y269A-Myc [2]
  binding: no binding
TFCP2-Myc [3]
  binding: binds
TFCP2-Myc [4]
  binding: no binding
TFCP2^Y269A-Myc [5]
  binding: no binding
TFCP2-Myc [6]
  binding: binds

B1: transcription factor CP2 (endogenous) (protein, UniProt Q12800 1-502)
chain: MAWALKLPLADEVIESGLVQDFDASLSGIGQELGAGAYSMSDVLALPIFKQEESSLPPDNENKILPFQYVLCAATSPAVKLHDETLTYLNQGQSYEIRMLDNRKLGELPEINGKLVKSIFRVVFHDRRLQYTEHQQLEGWRWNRPGDRILDIDIPMSVGIIDPRANPTQLNTVEFLWDPAKRTSVFIQVHCISTEFTMRKHGGEKGVPFRVQIDTFKENENGEYTEHLHSASCQIKVFKPKGADRKQKTDREKMEKRTPHEKEKYQPSYETTILTECSPWPEITYVNNSPSPGFNSSHSSFSLGEGNGSPNHQPEPPPPVTDNLLPTTTPQEAQQWLHRNRFSTFTRLFTNFSGADLLKLTRDDVIQICGPADGIRLFNALKGRMVRPRLTIYVCQESLQLREQQQQQQQQQQKHEDGDSNGTFFVYHAIYLEELTAVELTEKIAQLFSISPCQISQIYKQGPTGIHVLISDEMIQNFQEEACFILDTMKAETNDSYHIILK
[7]
  binding: binds
[8]
  binding: binds
[9]
  binding: no binding

Source: publication PMC8576304
